Data as given in PubChem BioAssay AID588342 (National Center for Advancing Translational Sciences (NCATS), 2011).
About 25,000 (6.9%) of roughly 360,000 compounds were called active. The shares of active, inactive and inconclusive entries below differ from those in the screen. Calls follow the shape of the dose curve; as a rule, active = well fitted inhibition curve with a large enough effect; inconclusive = small, poorly fitted or top-dose-only effect; inactive = flat fitted curve, though single readings scatter. Potencies of inconclusive entries are doubtful fits and often do not repeat.
Also: nearly all actives have a fitted effect of over 55% in size.
Potency is read from the fitted curve at half-maximal effect; tags tell the direction and shape of the fitted curve.

Each compound was assayed against Luciferin 4-monooxygenase (Photinus pyralis) (UniProt P08659) (assay: qHTS profiling assay for firefly luciferase inhibitor/activator using purifed enzyme and Km concentrations of substrates (counterscreen for miR-21 project)). Conditions: purified FLuc, luminescence inhibition; series mostly up to 57.5 µM.
Sequence of UniProt P08659 (P08659 whole entry, looked up): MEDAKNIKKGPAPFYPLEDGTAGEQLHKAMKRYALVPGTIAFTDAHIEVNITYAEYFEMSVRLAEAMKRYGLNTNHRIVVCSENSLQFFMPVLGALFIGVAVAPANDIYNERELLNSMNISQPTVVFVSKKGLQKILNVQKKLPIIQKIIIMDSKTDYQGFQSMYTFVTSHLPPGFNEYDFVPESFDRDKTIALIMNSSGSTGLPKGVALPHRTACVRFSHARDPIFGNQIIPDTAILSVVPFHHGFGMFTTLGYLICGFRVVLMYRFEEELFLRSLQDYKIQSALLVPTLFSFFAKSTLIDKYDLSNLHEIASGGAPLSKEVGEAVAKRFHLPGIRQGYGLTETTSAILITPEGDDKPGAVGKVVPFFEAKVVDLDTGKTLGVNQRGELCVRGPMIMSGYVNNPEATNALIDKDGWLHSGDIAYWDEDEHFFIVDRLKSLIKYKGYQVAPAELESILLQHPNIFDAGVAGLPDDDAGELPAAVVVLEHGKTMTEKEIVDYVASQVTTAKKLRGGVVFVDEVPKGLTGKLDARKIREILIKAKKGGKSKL
How it was run: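 Biochemical qHTS of compounds, final roughly 60 µM downward over six points, against 10 nM purified firefly luciferase using Km concentrations of substrates (10 uM D-luciferin, 10 uM ATP) in Tris acetate pH 7.5 buffer; luminescence output.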
In the case of CNc1ncc(Cc2ccccc2)s1, the Potency is reported as inconclusive: 30.1 µM [inhibitor, partial curve, poor fit]. Cc1ccc(C(=O)Nc2cccc3ccccc23)cc1 was tested, and the Potency was inconclusive: 30.1 µM [inhibitor, single point]. With O=C(N/N=C/c1ccccc1)c1ccco1 the Potency was active: 13.5 µM. With O=C(O)c1ccc(NC2=Nc3cccc4cccc2c34)cc1 the Potency was inconclusive: 13.5 µM [inhibitor, partial curve]. In the case of Cc1ccc(C)c(CN2C(=O)c3ccccc3Sc3ccc(C(=O)NCc4ccco4)cc32)c1, the Potency is reported as “inactive”. In the case of CCc1cccc(C)c1Nc1c(-c2ccc(N(C)C)cc2)nc2ncccn12, the Potency is reported as inconclusive: 21.3 µM [inhibitor, partial curve, poor fit]. With O=C(N/N=C/c1cccc([N+](=O)[O-])c1)C1COc2ccccc2O1 (stereo unspecified) the Potency was “inactive”. In the case of O=C(NC1CCCCCC1)C(=S)NCCc1ccccc1, the Potency is reported as inconclusive: 23.9 µM [inhibitor, single point]. With Cc1ccc(/C=C/C(=O)c2c(C)nc3ccccn23)cc1 the Potency was active: 1.07 µM. Nc1nc(NC(=O)/C=C/c2ccccc2)nn1-c1ccccc1 was tested, and the Potency was inconclusive: 30.1 µM [inhibitor, partial curve, poor fit]. CC1CCC(NC(=O)C2(C)Cc3ccccc3C(=O)N2Cc2ccccc2Cl)CC1 (stereo unspecified) was tested, and the Potency was “inactive”. With Cc1cc(C)nc(N/N=C/c2ccccc2Cl)n1 the Potency was inconclusive: 23.9 µM [inhibitor, partial curve]. With COc1cc(C2Nc3cccc4cccc(c34)N2)cc(OC)c1O the Potency was inconclusive: 26.9 µM [inhibitor, partial curve]. With COc1cccc(NC(=O)CSc2nc(O)c(C/C=C/c3ccccc3)c(=O)[nH]2)c1 the Potency was inconclusive: 10.7 µM [inhibitor, partial curve]. COc1ccc(NC(=O)Nc2cnccn2)c(OC)c1 was tested, and the Potency was inconclusive: 19 µM [inhibitor, single point]. For O=C(CCCN1C(=O)/C(=C\c2cccs2)SC1=S)Nc1cccc(C(=O)O)c1, the Potency was inconclusive: 19 µM [inhibitor, single point]. For Cn1c2c(c(=O)n(C)c1=O)C(c1ccc(O)cc1)Nc1ccccc1O2 (stereo unspecified), the Potency was inconclusive: 26.9 µM [inhibitor, partial curve, poor fit]. COc1cccc(OCC(=O)NNC(=O)c2ccc3ccccc3c2O)c1 was tested, and the Potency was inconclusive: 23.9 µM [inhibitor, single point]. CC(=O)Nc1ccc(OCC(O)Cn2ccnc2)cc1 (stereo unspecified) was tested, and the Potency was inconclusive: 37.9 µM [inhibitor, single point]. With C/C(=N\NC(=O)c1c(Cl)cnn1C)c1cccnc1 the Potency was inconclusive: 19 µM [inhibitor, partial curve, poor fit]. With O=C(NCC1COc2ccccc2O1)c1ccc(Cl)cc1 (stereo unspecified) the Potency was active: 7.57 µM. COc1cc(OC)c2c(-c3ccccc3)cc(=O)oc2c1 was tested, and the Potency was inconclusive: 30.1 µM [inhibitor, partial curve, poor fit]. In the case of Cc1cccc(Nc2ccccc2C(=O)OCC(=O)N2CCOCC2)c1C, the Potency is reported as inconclusive: 37.9 µM [inhibitor, partial curve, poor fit]. In the case of CSc1ccc(S(=O)(=O)NCC(=O)OCC(=O)N(C)Cc2ccccc2)cc1[N+](=O)[O-], the Potency is reported as “inactive”. With O=[N+]([O-])c1ccc(C2=NCCO2)cc1 the Potency was “inactive”. In the case of N#C/C(=N\Nc1ccc(F)cc1)C(=O)C1CC1, the Potency is reported as “inactive”. In the case of CN1c2ccsc2C(O)=C(C(=S)Nc2ccc(F)c(Cl)c2)S1(=O)=O, the Potency is reported as inconclusive: 19 µM [inhibitor, single point]. CCC(C(=O)OCC(=O)Nc1cc(OC)ccc1OC)c1ccccc1 (stereo unspecified) was tested, and the Potency was inconclusive: 26.9 µM [inhibitor, single point]. With CCN1C(=O)/C(=C\c2ccc(-c3ccc([N+](=O)[O-])cc3OC)o2)SC1=Nc1cccc(C(=O)O)c1 the Potency was inconclusive: 37.9 µM [inhibitor, single point]. COCC1CCN(Cc2cn[nH]c2-c2cc(OC)c(OC)c(OC)c2)CC1 was tested, and the Potency was inconclusive: 26.9 µM [inhibitor, single point]. For COc1ccc(NS(=O)(=O)c2cc(NC(=O)c3ccc(=O)[nH]n3)ccc2C)cc1, the Potency was “inactive”. O=S(=O)(Nc1cccc(-c2ccc(N3CCOCC3)nn2)c1)c1ccc(Cl)c(Cl)c1 was tested, and the Potency was active: 5.36 µM. In the case of COc1cccc2c1O/C(=N\O)C(C(=O)Nc1cccc(Br)c1)C2 (stereo unspecified), the Potency is reported as inconclusive: 33.8 µM [inhibitor, partial curve, poor fit]. In the case of CCN1CCN(c2csc3ccc(Cl)cc3c2=O)CC1, the Potency is reported as active: 15.1 µM. In the case of Cc1cc(NC(=O)C(C)SCC(=O)N(C)Cc2ccccc2F)no1 (stereo unspecified), the Potency is reported as “inactive”. CC(=O)c1c(C)[n+]([O-])c2ccc3c(non3O)c12 was tested, and the Potency was inconclusive: 12 µM [inhibitor, partial curve, poor fit]. For CCOC(=O)COc1ccc2nsnc2c1Cl, the Potency was inconclusive: 37.9 µM [inhibitor, partial curve, poor fit]. Cc1ccc(C(=O)NCC(=O)OCc2cc(=O)n3nc(C4CCCCC4)sc3n2)cc1 was tested, and the Potency was inconclusive: 26.9 µM [inhibitor, partial curve, poor fit]. For Fc1cccc(Cl)c1Cn1ncc2ccccc21, the Potency was inconclusive: 37.9 µM [inhibitor, partial curve, poor fit]. c1ccc2c(c1)nc(NCCN1CCOCC1)c1nncn12 was tested, and the Potency was “inactive”. With CC(C)(C)c1ccc(NC(=O)COC(=O)C2=COCCO2)cc1 the Potency was inconclusive: 26.9 µM [inhibitor, single point]. Cc1cc(NC(=O)Nc2cc(Cl)sc2Cl)no1 was tested, and the Potency was inconclusive: 13.5 µM [inhibitor, partial curve, poor fit]. With Cc1cc(OC(=O)c2c(Cl)cc(Cl)cc2Cl)nc(C)n1 the Potency was inconclusive: 37.9 µM [inhibitor, single point]. Cc1ccc(NC(=O)c2cccnc2)cc1C was tested, and the Potency was inconclusive: 23.9 µM [inhibitor, single point]. CCOC(=O)CSC1=NC(=O)/C(=C\c2ccc(OC(C)=O)cc2)S1 was tested, and the Potency was active: 19 µM. For CC1(C)Cc2c(sc(NC(=O)c3ccc4ncsc4c3)c2C(N)=O)C(C)(C)N1, the Potency was inconclusive: 19 µM [inhibitor, partial curve]. With CC(C)CC(=O)Nc1ncc([N+](=O)[O-])s1 the Potency was inconclusive: 26.9 µM [inhibitor, single point]. For COc1ccc(C(=O)Nc2ccc3c(c2)C(=O)N(C)C3=O)cc1OC, the Potency was inconclusive: 2.39 µM [inhibitor, full curve]. With CCc1ccc(N2CN=c3s/c(=C\c4ccccc4)c(=O)n3C2)cc1 the Potency was inconclusive: 21.3 µM [inhibitor, single point]. With O=C1c2ccccc2C(Nc2ccc3c(c2)OCCO3)N1c1ccc(Cl)cn1 (stereo unspecified) the Potency was inconclusive: 37.9 µM [inhibitor, partial curve, poor fit]. For COCCNC(=O)CCc1c(C)nc2nc(-c3cc(OC)cc(OC)c3)nn2c1C, the Potency was “inactive”. With COc1cc(/C=N/N2C(=O)c3ccccc3C2=O)ccc1O the Potency was active: 12 µM. With CCOc1ccccc1CNC(=O)c1cccc(NC(=O)c2nsc3ccccc23)c1 the Potency was active: 6.01 µM. With O=C(NCc1n[nH]c(=S)n1Cc1ccccc1)c1ccc(Cl)cc1Cl the Potency was inconclusive: 21.3 µM [inhibitor, partial curve, poor fit]. For COc1cc(/C=N/Nc2ccccc2[N+](=O)[O-])cc(OC)c1O, the Potency was inconclusive: 4.78 µM [inhibitor, full curve]. In the case of Cc1ccc(C(CC(=O)Nc2ccc(C)cc2C)N2Cc3ccccc3C2=O)cc1 (stereo unspecified), the Potency is reported as “inactive”. CCCCNC(=S)N/N=C/c1ccc(C)s1 was tested, and the Potency was inconclusive: 23.9 µM [inhibitor, partial curve, poor fit]. For C=CCc1c(C)nc2c(OC)cccc2c1Cl, the Potency was active: 13.5 µM. CCOC(=O)c1cccc(NC(=O)C2CCN(c3nnc(C)c4c(C)n(-c5ccccc5)nc34)CC2)c1 was tested, and the Potency was inconclusive: 33.8 µM [inhibitor, partial curve, poor fit]. For CC1CCCN(C(=O)Cn2nnc(-c3ccc(N(C)C)cc3)n2)C1 (stereo unspecified), the Potency was inconclusive: 9.53 µM [inhibitor, partial curve]. COCCNC(=O)Cn1c(=O)n(-c2ccc(C)c(C)c2)c(=O)c2c3c(sc21)CCCCC3 was tested, and the Potency was “inactive”. In the case of CCOc1ccc2nc(NC(=O)CSC3=NCCS3)sc2c1, the Potency is reported as active: 15.1 µM. In the case of CC(C)c1ccc(C(=O)OC2CCOC2=O)cc1 (stereo unspecified), the Potency is reported as inconclusive: 37.9 µM [inhibitor, single point]. With N#C/C(=C\c1cccc(OCC(=O)O)c1)c1nc2ccccc2[nH]1 the Potency was active: 16.9 µM. With Clc1ccc(-c2n[nH]c3c2CCCC3)cc1 the Potency was inconclusive: 30.1 µM [inhibitor, single point]. In the case of CCn1c2ccccc2c2cc(/C=N/n3cn[nH]c3=S)ccc21, the Potency is reported as inconclusive: 19 µM [inhibitor, partial curve]. With O=C(O)CC(C(=O)Nc1ccc(Cl)cc1)N1CCCCCC1 (stereo unspecified) the Potency was “inactive”. O=C(Nc1cccc(-c2csc(Nc3ccccc3)n2)c1)c1cc([N+](=O)[O-])cc(C(F)(F)F)c1 was tested, and the Potency was inconclusive: 19 µM [inhibitor, partial curve, poor fit]. With Cc1c(C(=O)N/N=C/c2cccc(O)c2)nnn1-c1nonc1N the Potency was inconclusive: 10.7 µM [inhibitor, partial curve]. With COc1ccc2cc3c(N)nn(C(=O)C4CCC(C(C)(C)C)CC4)c3nc2c1 (stereo unspecified) the Potency was “inactive”. In the case of Cc1ccc(Nc2nnc(SCn3nnc4ccccc4c3=O)s2)cc1, the Potency is reported as inconclusive: 37.9 µM [inhibitor, single point].
